16 compounds from the antibiotic and cytotoxicity screens of Wong et al. (2023) can be followed below.

Some of the results follow.

For one test, the system named is HSkMC. The experiment in a line: cytotoxicity call (relative viability < 0.9). Conditions: 10 µM.
The test system of a further test is HepG2. The experiment in a line: cytotoxicity call (relative viability < 0.9). Conditions: 10 µM.
The test system of another test is S. aureus RN4220. The experiment in a line: growth inhibition call (relative growth <= 0.2). The following applies: 50 µM.

Take `C[C@H]1CN([C@@H](C)CO)S(=O)(=O)c2ccc(C#Cc3cccc(F)c3)cc2O[C@@H]1CN(C)C(=O)CN1CCOCC1`: the cytotoxicity call in the test on HSkMC and in the test on HepG2 was “inactive” each time. Further, the growth inhibition call with S. aureus RN4220 was “inactive”.

With `CCOCCn1c(N2CCCN(C)CC2)nc2ccccc21.O=C(O)C=CC(=O)O.O=C(O)C=CC(=O)O`, the cytotoxicity call with HSkMC and with HepG2 was “inactive” throughout. Also, the growth inhibition call in the test on S. aureus RN4220 was “inactive”.

Consider `C[C@@H]1CN([C@@H](C)CO)C(=O)c2cc(NC(=O)CCC(F)(F)F)ccc2O[C@H]1CN(C)Cc1ccc(C(=O)Nc2ccccc2N)cc1`, for which the cytotoxicity call in the test with HSkMC and in the test on HepG2 was “inactive” throughout. Further, the growth inhibition call in the test with S. aureus RN4220 is “inactive”.

Take `O=C1CN(S(=O)(=O)Cc2ccccc2)C[C@H]2[C@@H](c3ccc(C#Cc4cccc(F)c4)cc3)[C@H](CO)N12`: in the test with HSkMC, the cytotoxicity call is “inactive”. Also, the cytotoxicity call in the test with HepG2 was “active”. Also, in the test with S. aureus RN4220, the growth inhibition call was “inactive”.

`O=C(CCCCCC(=O)N/N=C/[C@H](O)[C@@H](O)[C@@H](O)[C@H](O)CO)NO`: the cytotoxicity call in the test with HSkMC and in the test with HepG2 was “inactive” each time. Moreover, the growth inhibition call in the test with S. aureus RN4220 was “inactive”.

Regarding `CN(C)C(=O)c1cccc(-c2cccc(-c3nc(C(=O)NC4CCCCC4)cc4c3[C@@H](CCO)N([S@@](=O)C(C)(C)C)C4)c2)c1`, the cytotoxicity call with HSkMC was “active”. Further, in the test with HepG2, the cytotoxicity call was “inactive”. The growth inhibition call in the test on S. aureus RN4220 is “inactive”.

In the case of `COC[C@H]1CN(C(=O)c2cscn2)N1C`, the cytotoxicity call with HSkMC and in the test with HepG2 was “inactive” in each case. Further, the growth inhibition call with S. aureus RN4220 was “inactive”.

In the case of `C[C@H](CO)N1C[C@H](C)[C@@H](CN(C)C(=O)c2cnccn2)Oc2ncc(C#Cc3ccccn3)cc2C1=O`, the cytotoxicity call in the test on HSkMC and in the test on HepG2 was “inactive” in each case. For the same compound, in the test with S. aureus RN4220, the growth inhibition call was “inactive”.

As for `Cc1noc(C)c1NC(=O)N(C)C[C@@H]1Oc2c(NC(=O)c3ccncc3)cccc2C(=O)N([C@H](C)CO)C[C@H]1C`, the cytotoxicity call with HSkMC and with HepG2 was “inactive” throughout. In addition, the growth inhibition call with S. aureus RN4220 was “inactive”.

Take `CO[C@@H]1CN(C)C(=O)c2cc(NS(=O)(=O)CC(F)(F)F)ccc2OC[C@H](C)N(C(=O)NC(C)C)C[C@H]1C`: the cytotoxicity call in the test on HSkMC and in the test on HepG2 was “inactive” each time. Also, the growth inhibition call in the test on S. aureus RN4220 is “inactive”.

As to `C[C@@H]1CN([C@H](C)CO)C(=O)Cc2cc(NC(=O)Nc3cccc4ccccc34)ccc2O[C@@H]1CN(C)C(=O)Nc1cccc2ccccc12`, the cytotoxicity call in the test on HSkMC and in the test on HepG2 was “inactive” in each case. In addition, the growth inhibition call in the test on S. aureus RN4220 was “inactive”.

Regarding `CO[C@@H]1CN(C)C(=O)c2cc(NS(C)(=O)=O)ccc2OC[C@H](C)N(S(C)(=O)=O)C[C@@H]1C`, the cytotoxicity call in the test on HSkMC and in the test with HepG2 was “inactive” throughout. Further, the growth inhibition call in the test on S. aureus RN4220 is “inactive”.

`C[C@H]1CCCCO[C@H](CN(C)Cc2ccc(Cl)c(Cl)c2)[C@@H](C)CN([C@@H](C)CO)C(=O)c2cc(NC(=O)Nc3cccc4ccccc34)ccc2O1`: the cytotoxicity call in the test on HSkMC and in the test with HepG2 was “inactive” each time. For the same compound, the growth inhibition call in the test with S. aureus RN4220 was “inactive”.

With `O=C(N[C@H](c1ccc(F)cc1)c1ccc2ccccc2n1)C1CCN(Cc2cccc(C(F)(F)F)c2)CC1`, the cytotoxicity call in the test with HSkMC and with HepG2 was “active” in each case. In the test on S. aureus RN4220, the growth inhibition call was “inactive”.

Consider `COc1ccc(S(=O)(=O)N(C)C[C@@H]2OCCCC[C@@H](C)Oc3ccc(NC(=O)C4CCCCC4)cc3C(=O)N([C@@H](C)CO)C[C@H]2C)cc1`, for which the cytotoxicity call in the test on HSkMC (human skeletal muscle cells) and with HepG2 was “inactive” in each case. The growth inhibition call in the test with S. aureus RN4220 is “inactive”.

In the case of `CC(C)NC(=O)N(C)C[C@@H]1Oc2ccc(NS(=O)(=O)c3ccc(F)cc3)cc2C(=O)N([C@H](C)CO)C[C@H]1C`, the cytotoxicity call in the test with HSkMC and in the test on HepG2 was “inactive” throughout. The growth inhibition call with S. aureus RN4220 was “inactive”.
